PMC4336329 (PLoS ONE, 2015)
About 2,200 (0.71%) of roughly 310,000 compounds showed an effect of 50% or more. The effect is printed as a negative number. Some of the results follow.

Molecular target: human ether-à-go-go-related gene (hERG) potassium channel (human, UniProt Q12809)
Test: primary screen, population patch clamp on CHO cells stably expressing hERG

human ether-à-go-go-related gene (hERG) potassium channel, sequence (Q12809 whole entry, looked up): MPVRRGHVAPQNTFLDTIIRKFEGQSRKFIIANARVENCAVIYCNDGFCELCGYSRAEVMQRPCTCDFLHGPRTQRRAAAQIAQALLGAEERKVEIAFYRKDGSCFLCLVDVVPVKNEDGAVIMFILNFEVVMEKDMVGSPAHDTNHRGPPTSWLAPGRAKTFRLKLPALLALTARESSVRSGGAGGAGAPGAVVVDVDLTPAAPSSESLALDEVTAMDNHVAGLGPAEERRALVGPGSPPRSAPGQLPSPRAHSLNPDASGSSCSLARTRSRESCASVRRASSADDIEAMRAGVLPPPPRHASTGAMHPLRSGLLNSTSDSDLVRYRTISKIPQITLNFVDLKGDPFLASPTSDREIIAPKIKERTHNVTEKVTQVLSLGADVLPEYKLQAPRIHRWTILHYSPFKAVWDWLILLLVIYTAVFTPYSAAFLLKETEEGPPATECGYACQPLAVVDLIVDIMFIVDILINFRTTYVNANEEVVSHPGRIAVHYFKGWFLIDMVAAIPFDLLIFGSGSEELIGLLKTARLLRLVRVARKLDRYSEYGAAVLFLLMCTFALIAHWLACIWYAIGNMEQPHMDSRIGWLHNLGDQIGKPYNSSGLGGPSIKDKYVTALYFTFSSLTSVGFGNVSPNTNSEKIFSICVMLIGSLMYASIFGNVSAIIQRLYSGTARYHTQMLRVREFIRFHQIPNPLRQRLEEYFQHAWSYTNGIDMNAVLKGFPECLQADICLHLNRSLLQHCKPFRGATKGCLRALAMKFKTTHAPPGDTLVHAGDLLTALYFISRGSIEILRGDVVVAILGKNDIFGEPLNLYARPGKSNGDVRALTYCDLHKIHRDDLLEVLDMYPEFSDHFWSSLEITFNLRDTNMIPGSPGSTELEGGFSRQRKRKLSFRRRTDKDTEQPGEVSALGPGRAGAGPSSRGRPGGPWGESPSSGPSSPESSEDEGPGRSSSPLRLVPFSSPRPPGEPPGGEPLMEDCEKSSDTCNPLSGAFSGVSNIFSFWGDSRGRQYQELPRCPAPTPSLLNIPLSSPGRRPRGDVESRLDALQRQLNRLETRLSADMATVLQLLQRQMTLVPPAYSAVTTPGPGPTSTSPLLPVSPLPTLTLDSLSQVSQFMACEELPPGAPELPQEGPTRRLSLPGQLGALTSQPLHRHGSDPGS

| Structure (SMILES) | hERG current change (%, negative = inhibition) at 1uM [%] |
| --- | --- |
| COc1ccc(-c2csc3ncnc(N4CCN(S(=O)(=O)c5ccc(C)c(C)c5)CC4)c23)cc1 | 18.8 |
| CCOc1ccc(NC(=O)CN2CCCC2c2cccs2)cc1S(=O)(=O)N1CCCC1 (stereo not shown) | 1.57 |
| O=c1c2[nH]c3ccc(F)cc3c2ncn1CCCN1CCOCC1 | 2.42 |
| OCCN(Cc1ccccc1)Cc1ccc(Cl)cc1 | -5.13 |
| Cc1cc(C(=O)NC2CCCN(Cc3ccc(Cl)cc3)C2)c(C)o1 (stereo not shown) | 2.95 |
| C/C(=N\NC(=O)c1ccc(C)cc1C)c1ccc2c(c1)Nc1ccccc1S2 | 15.7 |
| O=C(Nc1ccccc1C(F)(F)F)c1cc2ncc(CCCl)cn2n1 | -3.99 |
| CCOC(=O)C1CCN(C(=O)c2c(C)oc3c2C(=O)c2ccccc2C3=O)CC1 | 2.38 |
| O=C(c1cccc(C(F)(F)F)c1)C1CCCN(C(=O)Cn2cncn2)C1 (stereo not shown) | 11.6 |
| CCOc1ccc(Br)cc1/C(C)=N\NC1=NCCN1.Cl | -15.5 |
| O=C(Nc1cccc(S(=O)(=O)N2CCCC2)c1)c1cc(-c2ccccn2)nc2ccccc12 | 5.82 |
| O=C(COC(=O)c1cccc(C(F)(F)F)c1)NCc1ccc(Cl)cc1 | 7.56 |
| Nc1c(Cl)cc(Cl)cc1C(=O)OCC(=O)N1CCOCC1 | -0.979 |
| CC(=O)N1CCOc2ccc(S(=O)(=O)NC(C)c3ccccc3)cc21 (stereo not shown) | 6.21 |
| CN1C(=O)C(CC(N)=O)N(NC(=O)c2ccc(Cl)cc2)C1=S (stereo not shown) | 18.3 |
| Cc1ccc(C)c(NC(=O)CN(C)C(=O)c2ccccc2OCc2ccc(Cl)cc2)c1 | 6.83 |
| CC(=O)c1sc(N/N=C/c2cccc(O)c2)nc1C | 17.4 |
| COc1cc(CC(NC(C)=O)C(=O)NC2CCN(C(=O)Nc3ccccc3Cl)CC2)cc(OC)c1 (stereo not shown) | 7.01 |
| CC(C)(C)CNc1cc(N2CCCC2)ccc1[N+](=O)[O-] | 10.6 |
| CCOC(=O)C1(Cc2ccccc2C)CCCN(C(=O)CSC)C1 (stereo not shown) | 11 |
| CCc1ccc(NC(=S)N2CCCC(C(F)(F)F)C2)cc1 (stereo not shown) | 9.26 |
| CC(C)CC1NC(=O)N(CC(=O)Nc2ccc3c(c2)OCCO3)C1=O (stereo not shown) | 4.14 |

| Structure (SMILES) | hERG current change (%, negative = inhibition) at 1uM [%] |
| --- | --- |
| Cc1cc(C)cc(NS(=O)(=O)c2cccs2)c1 | 13.4 |
| Cc1ccc(-c2cc(-c3ccccc3O)nc(N/N=C/c3cccnc3)n2)cc1 | 11.9 |
| Cc1cccc(N=Nc2c(O)[nH]c3ccc(F)cc23)c1 | 10.1 |
| COc1cc(CN2CCCC(C(=O)c3ccc(C(C)(C)C)cc3)C2)cc(OC)c1O (stereo not shown) | 8.68 |
| O=C(NC(=S)Nc1cccc(O)c1)c1ccco1 | 13.8 |
| Cl.c1csc(COc2ccccc2CNC2CCCCC2)c1 | 6.25 |
| Cc1ccc(N2C(=O)S/C(=C/c3cn(C)c4ccccc34)C2=O)cc1 | 8.54 |
| Cc1ccccc1CC(=O)NC1CCN(Cc2ccccc2)CC1 | 7.22 |
| CCc1cc2c(=O)n(Cc3ccco3)c(SCC(=O)NC3CCS(=O)(=O)C3)nc2s1 (stereo not shown) | -29.7 |
| CCOc1cccc(-c2cc(C(=O)N3N=C(C)CC3(O)C(F)F)c3ccccc3n2)c1 (stereo not shown) | 3.65 |
| O=C1COc2ccc(S(=O)(=O)NCc3ccc(Cl)cc3)cc2N1 | 4.7 |
| COc1ccccc1C(=O)NC(=O)COC(=O)c1ncc(Cl)c(Cl)c1Cl | 4.21 |
| COC(=O)c1ccccc1-c1ccc(/C=N/NC(N)=O)o1 | -1.65 |
| Cn1ccnc1C1CCCCN1Cc1nc(-c2ccc(Cl)cc2)no1 (stereo not shown) | -0.373 |
| Cc1cc(C(=O)O)ccc1-c1ccc(/C=C2\NC(=O)N(Cc3ccc(F)cc3)C2=O)o1 | 13.7 |
| CC1CCCCC12NC(=O)N(Cn1nnc3ccccc3c1=O)C2=O (stereo not shown) | 9.04 |
| CCOc1ccc(NC(=O)CNC(=O)c2nn(-c3ccc(OC)c(OC)c3)c(=O)c3ccccc23)cc1 | 10.8 |
| CC(CN(C)Cc1ccccc1)OC(=O)c1cccc(F)c1.Cl (stereo not shown) | 12.1 |
| COC(=O)c1ccc2nc(-c3ccc4c(c3)OCO4)cn2c1 | 10.4 |
| O=C(NCC1CCCCC1)c1cccc(S(=O)(=O)NCc2cccnc2)c1 | 6.63 |
| CC1CC(C)CN(C(=O)COC(=O)CNC(=O)C23CC4CC(CC(C4)C2)C3)C1 (stereo not shown) | 19.7 |
